Results: the supplement of paper PMC4604168 (melanoma cell lines)
This is one part of the list. Most values come without repeats; read them as rough.

Test system: COLO792
Experiment: cell count relative to DMSO control; melanoma cells; higher = more viable cells
Details: library dose: standard library concentration; 72 h
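Also: cells treated in 1,536-well plates, then fixed and DAPI-stained, with nuclei counted from automated high-throughput microscope images.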

| SMILES | cell count [%] |
| --- | --- |
| O=C(O)c1ccc2c(c1)nc(Nc1cccc(Cl)c1)c1ccncc12 + Oc1cc(-c2nc(-c3ccccc3)[nH]c2-c2ccncc2)ccc1Cl [L779450] (first compound 2 µM, partner dose 1 µM) | 83.7 |
| O=C(Nc1ccccc1)c1cc([N+](=O)[O-])ccc1Cl + O=C(O)C(=O)Nc1sc2c(c1C(=O)O)CCNC2 [TCS401] (first compound 10 µM, partner dose 8.33333 µM) | 88.5 |
| Cn1nnc2c(C(N)=O)ncn2c1=O [temozolomide] + O=C1NC(=O)/C(=C/c2ccc(-c3ccc(F)cc3O)o2)S1 [AS252424] (first compound 10 µM, partner dose 5 µM) | 83.1 |
| O=C(Nc1ccccc1)c1cc([N+](=O)[O-])ccc1Cl + O=c1cc(-c2cccc3c2Sc2ccccc2S3)oc(N2CCOCC2)c1 [KU55933] (first compound 10 µM, partner dose 5 µM) | 79.5 |
| Cn1nnc2c(C(N)=O)ncn2c1=O [temozolomide] + COC(=O)c1sccc1S(=O)(=O)Nc1ccc(Nc2ccccc2)cc1OC [GSK0660] (first compound 10 µM, partner dose 5 µM) | 126 |
| O=C(Nc1cc(C(F)(F)F)cc(C(F)(F)F)c1)c1cc(Cl)ccc1O + c1cc(-c2cnn3cc(-c4ccc(OCCN5CCCCC5)cc4)cnc23)ccn1 [Dorsomorphin] (first compound 0.08 µM, partner dose 2 µM) | 95.1 |
| O=C(O)[C@@H]1[O][Sb](=[O])([O][Sb]2(=[O])[O][C@H]([C@H](O)CO)[C@H](O)[C@H](C(=O)O)[O]2)[O][C@H]([C@H](O)CO)[C@@H]1O (some centres not stated) [stibogluconate] + O=C1NC(=O)/C(=C/c2ccc(-c3ccc(F)cc3O)o2)S1 [AS252424] (first compound 10 µM, partner dose 5 µM) | 108 |
